# Reference: ChEMBL document CHEMBL4888484, “Replenishing the malaria drug discovery pipeline: Screening and hit evaluation of the MMV Hit Generation Library 1 (HGL1) against asexual blood stage Plasmodium falciparum ,using a nano luciferase reporter read-out” (2022)
# About 420 (8.8%) of roughly 4,800 compounds showed an effect of 50% or more. Some of the results follow.
# Tested on: Plasmodium falciparum
# Test: Confirmatory screen in NF54 nanoGlo assay, in single point, at 2uM, 72h
# Type: functional, Erythrocyte
# Conditions: timepoint 72 hour
row,Structure (SMILES),% Inhibition [%]
1,CCc1sc(N(C(=O)Cc2ccccc2)c2ccc(C)cc2C)nc1-c1ccc(Cl)cc1,4
2,Cc1ccc(NC(=O)Cn2c(=O)n(Cc3ccco3)c(=O)c3ccccc32)c(C)c1,-12
3,COc1cccc(-c2cc3c(N4CC=C(c5ccccc5)CC4)nccn3n2)c1,-2
4,COc1cc(C(C)(C)C)c(OCC(=O)N(c2ccccc2)c2ccccc2)cc1C(C)(C)C,0
5,Cc1cc(C)cc(-c2cc3nc(C)cc(N4CCC(C(=O)Nc5ccc(C)c(Cl)c5)CC4)n3n2)c1,0
6,O=C(O)c1cc2ccoc2n1Cc1ccccc1,3
7,Cc1cc(C(=O)Nc2cc(C)nn2C)nc(N(C)C)n1,-1
8,Cc1c(C)n(CC(O)CNC(C)c2ccccc2)c2c(Cl)cccc12 (stereo not drawn),64
9,C[C@@H](CC(=O)Nc1cncnc1-n1cccn1)c1ccccc1,-3
10,Cc1cccc([C@H]2NCCc3sccc32)n1,2
11,CC1(C)CCCc2sc(NC(=O)N[C@H]3CCOC4(CCC4)C3)nc21,-2
12,CCOC(=O)n1c(=O)[nH]c2ccc(Br)cc21,-10
13,COc1ccc(COC(=O)c2cccnc2C)cn1,-9
14,CC(C)N1CCN(C(=O)CN2N=C(c3nc(-c4ccccc4)no3)CCC2=O)CC1,5
15,CCN1C(=O)CCN(C(=O)c2ccnn2C)CC12CCOCC2,2
16,COCc1cc(C(=O)N[C@H](c2ccccc2)C2CCOCC2)no1,0
17,O=C(Nc1ccc(N2CCOCC2)nc1)c1cccs1,-12
18,CN(C)c1ccc(-c2nc(C(F)(F)F)cc(C(F)(F)C(F)(F)F)n2)cc1,4
19,COc1ccc(C(=O)N2CCN(c3cc(N4CCOCC4)nc(C)n3)CC2)cc1,-7
20,CNc1nc(C)nc(O)c1Br,-7
21,COc1ccc(CNC(=O)Cn2c(=O)n(Cc3cccc(OC)c3)c(=O)c3sccc32)cc1,1
22,CC(C)Nc1cccc(CNC(=O)N2CCOC[C@@H]2C)c1,-9
23,CCn1c(=O)c(N2CCN(C(=O)Nc3cccc(C(F)(F)F)c3)CC2)nc2ccccc21,-2
24,Cc1c(Nc2[nH]cnc3ncnc2-3)c(=O)n(-c2ccccc2)n1C,-12
25,Cc1cc(C)nc(OC(C(=O)O)C(OCc2ccccc2)(c2ccc(C(F)(F)F)cc2)c2cccc(C(F)(F)F)c2)n1 (stereo not drawn),0
26,Cc1ncsc1C(=O)Nc1cccc(S(=O)(=O)N2CCC(CO)CC2)c1,-3
27,Cn1ncc2nnn(-c3ccccc3)c(=O)c21,-1
28,CCc1ccc(NC(=O)[C@H]2CCCN(c3nc4cccnc4n(Cc4ccccc4)c3=O)C2)cc1,-6
